Data taken from PMC4336329 (PLoS ONE, 2015).
Out of some 310,000 compounds screened, about 2,200 (0.71%) showed an effect of 50% or more. Effects have a minus sign here. This is one part of the list.

biological target: human ether-à-go-go-related gene (hERG) potassium channel (human, UniProt Q12809); assay: primary screen, population patch clamp on CHO cells stably expressing hERG
Sequence (Q12809 whole entry, looked up): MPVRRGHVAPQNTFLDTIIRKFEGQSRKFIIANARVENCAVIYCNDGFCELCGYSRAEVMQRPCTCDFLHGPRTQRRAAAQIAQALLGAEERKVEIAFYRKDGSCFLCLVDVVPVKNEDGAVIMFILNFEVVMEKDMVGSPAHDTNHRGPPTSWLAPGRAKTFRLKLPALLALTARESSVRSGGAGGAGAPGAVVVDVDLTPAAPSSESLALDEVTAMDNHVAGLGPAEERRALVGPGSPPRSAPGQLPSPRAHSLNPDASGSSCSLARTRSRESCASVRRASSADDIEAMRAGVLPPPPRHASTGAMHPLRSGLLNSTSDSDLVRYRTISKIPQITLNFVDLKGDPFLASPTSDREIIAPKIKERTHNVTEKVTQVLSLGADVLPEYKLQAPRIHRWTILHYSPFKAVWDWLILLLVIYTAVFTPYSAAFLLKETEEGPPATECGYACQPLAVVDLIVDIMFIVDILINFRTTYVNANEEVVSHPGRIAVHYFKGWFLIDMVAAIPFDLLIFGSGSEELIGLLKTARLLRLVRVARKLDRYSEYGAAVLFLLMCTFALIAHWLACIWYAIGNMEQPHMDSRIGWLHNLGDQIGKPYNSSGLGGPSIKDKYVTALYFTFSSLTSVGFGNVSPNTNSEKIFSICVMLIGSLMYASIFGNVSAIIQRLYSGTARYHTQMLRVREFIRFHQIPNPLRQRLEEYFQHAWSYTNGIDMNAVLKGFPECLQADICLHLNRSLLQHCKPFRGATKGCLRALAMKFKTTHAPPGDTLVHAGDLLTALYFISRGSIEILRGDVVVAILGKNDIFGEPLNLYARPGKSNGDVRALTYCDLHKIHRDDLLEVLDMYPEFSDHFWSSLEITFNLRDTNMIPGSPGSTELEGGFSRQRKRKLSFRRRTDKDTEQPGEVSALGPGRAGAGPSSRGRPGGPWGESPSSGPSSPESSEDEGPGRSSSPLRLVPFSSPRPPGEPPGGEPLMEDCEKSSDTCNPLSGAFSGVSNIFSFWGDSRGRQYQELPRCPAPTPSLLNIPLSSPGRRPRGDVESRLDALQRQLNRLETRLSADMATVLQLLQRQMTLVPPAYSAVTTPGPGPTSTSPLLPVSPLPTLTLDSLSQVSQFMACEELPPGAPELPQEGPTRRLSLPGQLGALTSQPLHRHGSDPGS

| Structure (SMILES) | hERG current change (%, negative = inhibition) at 1uM |
| --- | --- |
| CC(C)(C)n1ncc2c(=O)n(CC(=O)N3CCCC3)cnc21 | 14.8% |
| COC(=O)Cc1cc(=O)[nH]c(/N=C(\N)Nc2ccccc2)n1 | 9.34% |
| O=C(NCc1ccc2c(c1)OCO2)C1CC(=O)N(C2CCCCCCC2)C1 (stereo not drawn) | -1.72% |
| COc1ccc(-c2nnc3n(CCc4ccccc4)c(=O)c4ccccc4n23)c(OC)c1 | 6.94% |
| COc1cccc(CNC(=O)CCNS(=O)(=O)c2cccc3nsnc23)c1 | 5.65% |
| COc1ccc(NCC(O)Cn2cnc3c2c(=O)n(C)c(=O)n3C)cc1 (stereo not drawn) | 13% |
| CCCCCCCOC(=O)c1ccc(OC(=O)c2cccnc2)cc1 | 12.1% |
| CC1=CC(=O)OC1Cc1ccncc1 (stereo not drawn) | 15.3% |
| CCC(C)c1ccc(C(CC)NC(=O)C2CCCO2)cc1 (stereo not drawn) | 17.4% |
| CCc1nnc(NC(=O)CCN(c2cc(C)cc(C)c2)S(=O)(=O)c2ccc(Cl)cc2)s1 | 15% |
| Cc1ccc(CC(=O)N/N=C/c2ccc3c(c2)OCO3)cc1 | 2.72% |
| O=C(NC1CCCCC1)C(c1ccccc1)N(C(=O)c1csnn1)C1CCCC1 (stereo not drawn) | 8.77% |
| Fc1ccccc1N1CCN(Cc2c(F)cccc2F)CC1 | 14.1% |
| CC1(C)Cc2c(C#N)c(N3CCNCC3)nc(-c3ccco3)c2CS1 | 7.63% |
| O=S(=O)(Nc1cccc(Cl)c1)c1ccc(-n2cccn2)cc1 | 7.36% |
| O=C(NNS(=O)(=O)c1ccc(F)cc1)c1ccc(O)cc1 | 14.5% |
| CCOC(=O)[C@@H]1[C@H]2COc3cc(OC)ccc3[C@@H]2N2C(=O)N(c3ccc(C(F)(F)F)cc3)C(=O)[C@]12C | 14.8% |
| COCCOC(=O)C1=C(C)NC(=O)NC1/C=C/c1ccccc1 (stereo not drawn) | 11% |
| Cc1nn(-c2ccc(F)cc2)c(Cl)c1/C=C1\C(=O)Nc2ccccc21 | 6.42% |
| COc1ccc(NC(=O)CN(C)CC(=O)Nc2cccc(F)c2)cc1Cl | 7.33% |
| COc1ccc(N2C(=O)CCC(C(=O)N3CCN(c4ccccn4)CC3)C2c2ccc(F)cc2)cc1 (stereo not drawn) | -21.3% |
| O=C(OC(C(=O)NCc1cccs1)c1ccccc1Cl)c1ccco1 (stereo not drawn) | 9.49% |
| Cc1nnc(NC(=O)c2ccc3c(c2)OCO3)s1 | 13.4% |

| Structure (SMILES) | hERG current change (%, negative = inhibition) at 1uM |
| --- | --- |
| CCn1c(N)c(C(=O)N2CCOCC2)sc1=S | 13.3% |
| COc1ccc(CNC(=O)C2CCCN2S(=O)(=O)c2ccc(S(=O)(=O)N(C)C)cc2)cc1 (stereo not drawn) | 5.21% |
| Cc1cccc(C)c1OCC(=O)NCc1ccccc1 | 11.7% |
| COc1cc(C(=O)NCC(=O)N/N=C/c2ccc(-c3cccc([N+](=O)[O-])c3)o2)cc(OC)c1OC | 6.2% |
| CC1CCCCC1NC(=O)C1Cc2ccccc2CN1S(C)(=O)=O (stereo not drawn) | 11.2% |
| CCn1c(SCC(=O)N2c3ccccc3Sc3ccccc32)nc2c1c(=O)n(C)c(=O)n2C | 7.08% |
| O=C(Nc1ccc(OC(F)(F)F)cc1)c1cnccn1 | 12.6% |
| COC(=O)c1ccc(COC(=O)[C@@H]2CC(O)CN2S(=O)(=O)c2ccccc2[N+](=O)[O-])cc1 (stereo partly drawn) | 10.7% |
| COc1ccc(-c2nc(C#N)c(N3CCCCCC3)o2)cc1 | -19.1% |
| S=c1nc(-c2ccccc2)c(-c2ccccc2)n[nH]1 | 11.4% |
| COc1ccccc1C(=O)NC(=O)COC(=O)CCOc1cc(C)ccc1C | 14.1% |
| CC1CCCN(CC(O)COCC2COc3ccccc3O2)C1.Cl (stereo not drawn) | -8.2% |
| CC(OC(=O)CNC(=O)c1ccccc1F)C(=O)Nc1nc(-c2ccccc2)cs1 (stereo not drawn) | 7.25% |
| CN(C)C(=O)CSc1nnc([C@H](Cc2c[nH]c3ccccc23)NC(=O)OC(C)(C)C)o1 | 6.45% |
| COc1ccc(C2CC3(CC(C)(C)NC(=S)N3)Oc3cc(O)cc(C)c32)cc1 (stereo not drawn) | 9.23% |
| O=C(CNC(=O)c1ccccc1)Nc1cccc(C(F)(F)F)c1 | 1.47% |
| COc1cc(C(=O)N2CCN(C(=O)c3cc(-c4ccc(Br)cc4)n[nH]3)CC2)cc(OC)c1OC | -38.2% |
| CCCC(=O)Oc1c(S(=O)(=O)c2ccc(C)cc2)c(C)nn1C(C)(C)C | 0.768% |
| COc1ccc(OC)c(/C=C/C(=O)N2C(=O)c3cccc(N)c3C2=O)c1 | 7.87% |
| COc1cccc(C(=O)NNC(=O)C(=O)N2CCCCC2)c1 | 13.4% |
| CC(=O)c1sc(NC(=O)CN2C(=O)NC3(CCCC3)C2=O)nc1-c1ccccc1 | 12.2% |
| CCOCc1cnc(C)nc1NCC(=O)c1c(C)[nH]c2ccccc12 | 13.3% |
| CC(C)C(O)(c1ccccc1)C(CN1CCOCC1)c1ccccc1.Cl (stereo not drawn) | 12.4% |

| Structure (SMILES) | hERG current change (%, negative = inhibition) at 1uM |
| --- | --- |
| CCOC(=O)c1ccccc1NC(=O)COC(=O)C(CC(C)C)NC(N)=O (stereo not drawn) | 7.56% |
| CC1CCCC(C)N1C(=O)CSc1nc2ccccc2s1 (stereo not drawn) | 12.5% |
| Cn1c(=O)oc2cc(S(=O)(=O)N3CCC(N4CCCCC4)CC3)ccc21 | 6.79% |
| COc1ccc(-n2c(C)cc(C(=O)CSc3ccc(NC(C)=O)cc3)c2C)cc1 | 12.3% |
| O=C(NCc1cccnc1)c1ccc(COc2ccc(Cl)cc2Cl)o1 | 4.44% |
| Cc1cc(Cl)ccc1NC(=S)NCCN1CCOCC1 | 6.23% |
| CCNC(=O)CC1S/C(=N/N=C(\C)c2ccccc2)NC1=O (stereo not drawn) | 1.65% |
| CCOc1cc(S(=O)(=O)NCc2cccnc2)c(C)cc1C | 11.9% |
| O=C(c1ccccc1)C(O)(Cc1ccccc1)c1ccccc1 (stereo not drawn) | 7.17% |
| Cc1occc1C(=O)Nc1cccc([N+](=O)[O-])c1C | 8.63% |
| COc1ccc(/C=C/C(=O)Nc2cc(C)on2)cc1 | 6.93% |
| O=C(CSc1ccc(Br)cc1)Nc1ccccc1N1CCOCC1 | 14.2% |
| COc1cc(CO)ccc1OCC(=O)Nc1ccc(Br)cc1 | 10.2% |
| COc1ccc(Cl)cc1C(=O)NNC(=S)NC1CCCCC1 | 13.2% |
| C[N+]1(C)C2CCC1CC(OC(=O)c1ccccc1)C2.[Br-] (stereo not drawn) | 4.1% |
| O=C(c1ccncc1)N1CCCC(N2CCN(c3ccc(F)cc3)CC2)C1 (stereo not drawn) | -19.9% |
| S=c1nc(NCCc2ccccc2Cl)c2ccccc2[nH]1 | 17.4% |
| Cc1ccc(-c2csc(NC(=O)CCNC(=O)c3ccc(Cl)cc3)n2)cc1 | 11% |
| O=C(COc1ccc(Cl)cc1)N(Cc1ccc(F)cc1)C1CCS(=O)(=O)C1 (stereo not drawn) | -4.13% |
| CCc1cccc(NC(=O)Cn2c(=O)oc3cc(S(=O)(=O)N4CCOCC4)ccc32)c1 | 17.5% |
| CC1(C)Cc2cccc(OCC(=O)Nc3ccccc3N3CCOCC3)c2O1 | -2.2% |
| O=C1c2ccccc2C(=O)N1CCSc1ncn[nH]1 | 19% |
| CC(C(=O)NCc1ccccc1)N1C(=O)C2CC=C(Cl)CC2C1=O (stereo not drawn) | 9.04% |

| Structure (SMILES) | hERG current change (%, negative = inhibition) at 1uM |
| --- | --- |
| CC(C)NC(=O)COc1ccc(S(=O)(=O)N2CCCC2)cc1 | 13% |
| CCc1[nH]nc(C(=O)N2CCCC(Nc3ccc(C(C)C)cc3)C2)c1C (stereo not drawn) | 0.282% |
| CCn1c(SCC(=O)NC2CCS(=O)(=O)C2)nnc1-c1ccccc1 (stereo not drawn) | 6.72% |
| COC1=NS(=O)(=O)c2ccccc21 | 6.4% |
| CCCCCCc1ccc(O)cc1O | 18.3% |
| CCN(CC(O)CON=C1c2ccccc2-c2ccccc21)S(=O)(=O)c1ccc(C)cc1 (stereo not drawn) | 7.09% |
| O=C(C(c1ccccc1)c1ccccc1)N1CCC(c2nc(-c3ccccc3Cl)no2)CC1 | 12.1% |
| NC(=O)COC(=O)c1ccc(Cl)c(S(=O)(=O)N2CCCCCC2)c1 | 2.11% |
| CCCCCC1CC1C(=O)N/N=C/c1ccc(N(C)C)cc1 (stereo not drawn) | 3.81% |
| O=C(/C=C/Nc1ccccc1Oc1ccccc1)c1ccco1 | 17.2% |
| Brc1ccc(C2C3=C(Nc4ncnn42)c2ccccc2OC3c2ccncc2)cc1 (stereo not drawn) | 1.53% |
| Cc1ccc(C(=O)Nc2c3c(nn2C(C)(C)C)CS(=O)(=O)C3)cc1[N+](=O)[O-] | 21.2% |
| C=CCOC(=O)C1=C(C)NC(=O)NC1c1ccc2c(c1)OCO2 (stereo not drawn) | 0.316% |
| CCC(NC(=O)CCl)c1ccc(C)cc1 (stereo not drawn) | 13.3% |
| C=CCNC(=O)C1CC2c3ccccc3C1c1ccccc12 (stereo not drawn) | 15.8% |
| CCC(=O)Nc1ccc(C(=O)c2ccccc2)cc1 | -3.28% |
| CC(C(=O)O)n1nc(-c2ccccc2)c2ccccc21 (stereo not drawn) | 11.5% |
| Cc1ccc(S(=O)(=O)NCC(=O)N2CCOCCOCCOCC2)cc1 | 4.03% |
| CCc1ccccc1NC(=O)C1CCCC1 | 12.8% |
| CCOc1ccc(NC(=O)CCNS(=O)(=O)c2ccc3c(c2)c(=O)n(C)c(=O)n3C)cc1 | 19% |
| CS(=O)(=O)O.c1ccc(-c2ccc3c(c2)c2c4n3CCN=C4CCC2)cc1 | 2.12% |
